Data: article PMC12136788
The list shows a part of the results.

T1: UNK ZnF1-6 (called full-length) (human, UniProt Q9C0B0 30-357)
T1 sequence: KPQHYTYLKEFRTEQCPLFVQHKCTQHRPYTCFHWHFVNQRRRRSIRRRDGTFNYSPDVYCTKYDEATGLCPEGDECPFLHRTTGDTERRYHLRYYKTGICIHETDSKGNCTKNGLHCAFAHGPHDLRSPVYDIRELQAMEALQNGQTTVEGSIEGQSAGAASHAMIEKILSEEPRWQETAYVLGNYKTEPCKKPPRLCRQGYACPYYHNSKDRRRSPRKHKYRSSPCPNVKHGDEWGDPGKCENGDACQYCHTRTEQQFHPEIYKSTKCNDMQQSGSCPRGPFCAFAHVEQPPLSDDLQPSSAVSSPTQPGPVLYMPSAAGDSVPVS

B1: ENSG00000139233:stop:overlap|stop_codon|ENSG00000139233|stop_codon|NA|stop_codon (ssRNA)
RNA: GGGAGUUCUACAGUCCGACGAUCAGAAAAGAAAGGGGAAAAGCAAAGCAAAAGCAGUGAAAGUGGCAAAGGGUUUGGCCUGGUAGACUCUUAAAACCUUGGAAAAUGCCACAUGGGAUAGAUGACGGAUUAGAAUGUAUACACCAACAGAGGAUUGAGCAUCA
B2: chr19:12875797:12875908:-|3pUTR|ENSG00000105612|unk|FALSE|unique (ssRNA)
RNA: GGGAGUUCUACAGUCCGACGAUCUUCGAGACCAGCCUGGGCUACAUAGUGAGACCACAUCUCUACUAGAACUUAAAAAAAGUUAGCCAGGCACGGUGAUAAAUGCCUGUAGUCCCAGCCACUGAAGCCAGAGGAUCGAUUGAACAACAGAGGAUUGAGCAUCA
B3: ENSG00000070961:be:win_4351|3pUTR|ENSG00000070961|bound_else_gene|NA|bound_elsewhere_windowed (ssRNA)
RNA: GGGAGUUCUACAGUCCGACGAUCGAAAAAAACAAAACAAAACAAAAAAACAUGAGCAGUGGUGUUCUAAUGAAGUUAUGACAUCUGUCCUAAUUAGUUUCUUAAAUACAUUUACUACUUAAUGGUUUUGAAGCAACUGUUUAACAACAGAGGAUUGAGCAUCA
B4: chr11:118751385:118751486:-|3pUTR|ENSG00000110367|msi1|total|mutant (ssRNA)
RNA: GGGAGUUCUACAGUCCGACGAUCUUGAAGUCUCUUCCCUUUCUACCCAGUACUCGAGCCCAGGGCCCGAAGUUGAAACUCACCCGUAAUGUUAAACACCAUUUUUUUUUUCUUUUUGGGGAGGAGUUGAUAUGCAACUGCAGUCAACAGAGGAUUGAGCAUCA
B5: chr11:43494716:43494817:+|3pUTR|ENSG00000052841|unk|total|mutant (ssRNA)
RNA: GGGAGUUCUACAGUCCGACGAUCGUUACCCAUCUUGGAAUAAGUUGUGAAUGUCAGCUCCCUCUCUCUGAGGCCUCCAGACUCCGCUCCUCAGGAGGGUAAUGAGCCAAGGUUGAGUGUUUCCAUACAAUGCUUUUACCUUUGCAACAGAGGAUUGAGCAUCA
B6: chr21:36416827:36416928:+|3pUTR|ENSG00000159259|unk|FALSE|unique (ssRNA)
RNA: GGGAGUUCUACAGUCCGACGAUCAACUUUGGAAGGUAGUUGUGUUUGUUUUCUGAUUUUAAAGGUGACGAUGCUUAUUCUUUUAGUAACUAAGUGAAGUGAAAAAGAUGGGUAUCACCCAUCAUCUUCCCACCAGAAGUAACCCAACAGAGGAUUGAGCAUCA
B7: ENSG00000100485:stop:overlap|stop_codon|ENSG00000100485|stop_codon|NA|stop_codon (ssRNA)
RNA: GGGAGUUCUACAGUCCGACGAUCAUAUAUAUACACAUAUAUAUACACACACACACACAUUUUAUGUGUCAGUUUUCAAUAUAUAGUUAACACAAAAGCUCUCAGCUUUUAAUUCAAAUAUAGGGAAUAUUUUUAACUUCACAGCAACAGAGGAUUGAGCAUCA
B8: chr20:58360308:58360409:+|3pUTR|ENSG00000124209|msi1|FALSE|unique (ssRNA)
RNA: GGGAGUUCUACAGUCCGACGAUCCAUUGAACAUGUUAGCCUAGGAUACGUACAGUAAAUUAACAAUGAUAGCAGCAGAUGCCUAGCUCAUCCUGGGUUUGCUUCUGACCUUGUCAUGUGUGUGCCACCAAACACGUUAUUGGCCAACAGAGGAUUGAGCAUCA
B9: chr9:121180810:121180911:-|3pUTR|ENSG00000119396|msi1|FALSE|unique (ssRNA)
RNA: GGGAGUUCUACAGUCCGACGAUCUUUGGAUAAAUUUCCUGUUGUGUGGGUGGCAUUUUUCUUAACGAGAUUUGCUUCUGUCUUAGCCUCACACAGGGAAAAUAUCCAUUUAUCUUCUCUCUCGUGCUUAAUUAAUAGCUUUAUCAACAGAGGAUUGAGCAUCA
B10: chr9:15474029:15474130:-|CDS|ENSG00000164985|unk|FALSE|unique (ssRNA)
RNA: GGGAGUUCUACAGUCCGACGAUCAAGAAAAGAGCCGGAUAAAAAAGAGGGGAAGAAAGAAGUUGAAUCAAAAAGGAAAAAUUUAGCUAAAACAGGGGUUACUUCAACCUCCGAUUCUGAAGAAGAAGGAGAUGAUCAAGAAGGCAACAGAGGAUUGAGCAUCA
B11: chr11:130405560:130406128:-|CDS|ENSG00000134917|control|control|control (ssRNA)
RNA: GGGAGUUCUACAGUCCGACGAUCGCUGGGGGACUGGUCUGAGUGCUCUAGCACCUGCGGGGCCGGCUGGCAGAGGCGAACUGUAGAGUGCAGGGACCCCUCCGGCCAGGCCUCUGCCACCUGCAACAAGGCUCUGAAACCCGACAACAGAGGAUUGAGCAUCA
B12: chr5:150709129:150709230:-|3pUTR|ENSG00000132912|msi1|FALSE|unique (ssRNA)
RNA: GGGAGUUCUACAGUCCGACGAUCCACAAAACACUUUGAUCAUAAACUUUUUUCUUCAGAAGCCAAACUAACUUGCAGAAUAAUAGAGCCACUGGUUUAAUGUUUCCUCAAGAUAGGUUUUAGUGUAAGCUAGUAUUCUGUGUGCAACAGAGGAUUGAGCAUCA
B13: chr16:84177846:84179851:-|three_prime_utr|ENSG00000103168|control|control|control (ssRNA)
RNA: GGGAGUUCUACAGUCCGACGAUCGCAGAGAGACCUGGGCUCCCUCCCUGCGGCAGAGCCACCCCCUGCACCCGAGUCAGGCCUAGAGGACAAGCUCAGUGAGCGCCUGGGGGAAGCCUGGGCAGGCCGAGGGGCUGCCUGGUGCAACAGAGGAUUGAGCAUCA
B14: chr1:113706032:113706133:-|CDS|ENSG00000116793|unk|total|mutant (ssRNA)
RNA: GGGAGUUCUACAGUCCGACGAUCCAAUGCCUAUCAGCAAGGAGCCGGUUAUCAGAUGCUGGGAAAUGUUGUCACUAUUGGAUCCGCAUUUUUUCCAUUCUUACAUCGACUUUUCCGUGAGAAGAGCCUUGACCAACUAAAGUCCAACAGAGGAUUGAGCAUCA
B15: ENSG00000124766:be:win_3951|3pUTR|ENSG00000124766|bound_else_gene|NA|bound_elsewhere_windowed (ssRNA)
RNA: GGGAGUUCUACAGUCCGACGAUCGUUUGGGGGAAAAAAAAGAAAAAAUCAUGCCAGCUAAUCAUGUCAAGUUCACUGCCUGUCAGAUUGUUGAUAUAUACCUUCUGUAAAUAACUUUUUUUGAGAAGGAAAUAAAAUCAGCUGCAACAGAGGAUUGAGCAUCA
B16: ENSG00000198589:be:win_1|CDS|ENSG00000198589|bound_else_gene|NA|bound_elsewhere_windowed (ssRNA)
RNA: GGGAGUUCUACAGUCCGACGAUCAUGGCUAGCGAAGACAAUCGUGUCCCUUCCCCGCCACCAACAGGUGAUGACGGGGGAGGUGGAGGGAGAGAAGAAACCCCUACUGAAGGGGGUGCAUUGUCUCUGAAACCAGGGCUCCCCCAACAGAGGAUUGAGCAUCA
B17: chr1:200665936:200666740:-|CDS|ENSG00000118197|control|control|control (ssRNA)
RNA: GGGAGUUCUACAGUCCGACGAUCCUGGGAAUUUUAGUUCAAGGGCAAGAAGUCACCAGGCCCAUUAUUGACUUUGAACAUUGUAGUCUCCCUGAGGUCUUAAAUCACAACUUGAAGAAAUCAGGCUAUGAGGUGCCAACUCCCCAACAGAGGAUUGAGCAUCA
B18: chr15:59031169:59031386:+|CDS|ENSG00000157450|unk|total|mutant (ssRNA)
RNA: GGGAGUUCUACAGUCCGACGAUCACACCAAGUGAUGAAGAUAAUGAUUCCUCUUUCCGUGAUUGUCUUUCUUCUCCUUCAUCCCGUCUGCAUUUUGGAGAUUCUGAUACUGUGACUUCAGAUGAGGAUAAAGAAGUCUCUGUACAACAGAGGAUUGAGCAUCA
B19: chr2:73761781:73762859:-|three_prime_utr|ENSG00000144048|control|control|control (ssRNA)
RNA: GGGAGUUCUACAGUCCGACGAUCUAUUCACACAGGAGGUAUUCUUGGAAUGUGAAGCCCAAUGCCAGUCGGGCAGCCCAGGAUAGAAGAAGGUGGUAUCCUUAUAAUUACUCCAGACUCUCCUAUCCAGCCUGUUGGGAAUGGCAACAGAGGAUUGAGCAUCA
B20: chr20:50584425:50584526:+|3pUTR|ENSG00000196396|msi1|total|mutant (ssRNA)
RNA: GGGAGUUCUACAGUCCGACGAUCACCUCCUAUCCUUGGAGAGCAGCUGGCUCUCCACCUUGUUACACAUUAUGUCCGAGAGGCCGCGAGCUGCUCUGCUAUAUGCCUUAAGCCAAUAUUUACUCAUCAGGUCAUUAUUUUUUACAACAGAGGAUUGAGCAUCA
B21: chr12:100625254:100625355:+|3pUTR|ENSG00000139354|unk|total|mutant (ssRNA)
RNA: GGGAGUUCUACAGUCCGACGAUCAUAUGUAUUAAAUAUGGAGUUCAUAUACCUGCUAAUAUCAACGGUGGUGCUCUUACUAUCCGUUAAUUGCAUUUUGGUUAAAAAAAAAAAAGCAACAGUUUGGCACUUGUCCUACAAAAGCAACAGAGGAUUGAGCAUCA
B22: chr9:96818597:96818698:-|CDS|ENSG00000196597|unk|FALSE|unique (ssRNA)
RNA: GGGAGUUCUACAGUCCGACGAUCGGAGAAACCAUUCGAAUGUCAUGAAUGUGGGAAAUCUUUUAACUAUAAGUCAAUCCUCAUAGUGCAUCAGAGAACUCACACAGGGGAGAAACCUUUUGAAUGUAAUGAAUGCGGGAAAUCCAACAGAGGAUUGAGCAUCA

target: T1, UNK ZnF1-6 (called full-length); test: nsRBNS (natural sequence RNA bind-n-seq); RBNS binding buffer (assumed for nsRBNS): 25 mM Tris pH 7.5, 150 mM KCl, 3 mM MgCl2, 0.01% Triton X-100, 500 ug/ml BSA, 20 U/ml SUPERase-In, 4 C; UNK is unkempt and MSI1 is Musashi-1; names of the RNAs are library labels; protein concentration not given here; high values mean tight binding

| Binder | binding signal [enrichment R] |
| --- | --- |
| B1 | 0.444 |
| B2 | 0.736 |
| B3 | 0.592 |
| B4 | 1.43 |
| B5 | 0.55 |
| B6 | 0.366 |
| B7 | 0.753 |
| B8 | 0.982 |
| B9 | 0.679 |
| B10 | 0.855 |
| B11 | 0.844 |
| B12 | 0.596 |
| B13 | 1.15 |
| B14 | 0.364 |
| B15 | 0.788 |
| B16 | 0.651 |
| B17 | 0.83 |
| B18 | 0.231 |
| B19 | 0.562 |
| B20 | 0.85 |
| B21 | 0.376 |
| B22 | 0.563 |
